Hit rate of the full screen: of about 270,000 compounds, about 5,800 (2.1%) were called active. Inconclusive means that the source gave no clear call. Such entries were picked first, then a sample of the others. Calls come from the whole dose curve; as a rule, active = well fitted inhibition curve with a large enough effect; inconclusive = small, poorly fitted or top-dose-only effect; inactive = flat fitted curve, though single readings scatter. Where the call is inconclusive, the potency comes from a doubtful curve fit.
Biological target: Microtubule-associated protein tau (Homo sapiens) (UniProt P10636)
Test: qHTS for Inhibitors of Tau Fibril Formation, Thioflavin T Binding; note: nearly all actives have a fitted effect of over 55% in size
Details: recombinant tau K18 P301L (four-repeat tau fragment), heparin-induced fibrillization, ThT fluorescence; series mostly up to 57.4 µM
Method in brief: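 Aggregation was driven by heparin (20 uM final) acting on recombinant tau […] bearing P301L in 100 mM sodium acetate pH 7; fibrils were detected with Thioflavin T.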
% is set by controls: 0 for no effect and ±100 for the full control effect; potency is the fitted concentration of half-maximal effect; tags give direction and shape of the fitted curve.

Sequence of UniProt P10636 (P10636 whole entry, looked up): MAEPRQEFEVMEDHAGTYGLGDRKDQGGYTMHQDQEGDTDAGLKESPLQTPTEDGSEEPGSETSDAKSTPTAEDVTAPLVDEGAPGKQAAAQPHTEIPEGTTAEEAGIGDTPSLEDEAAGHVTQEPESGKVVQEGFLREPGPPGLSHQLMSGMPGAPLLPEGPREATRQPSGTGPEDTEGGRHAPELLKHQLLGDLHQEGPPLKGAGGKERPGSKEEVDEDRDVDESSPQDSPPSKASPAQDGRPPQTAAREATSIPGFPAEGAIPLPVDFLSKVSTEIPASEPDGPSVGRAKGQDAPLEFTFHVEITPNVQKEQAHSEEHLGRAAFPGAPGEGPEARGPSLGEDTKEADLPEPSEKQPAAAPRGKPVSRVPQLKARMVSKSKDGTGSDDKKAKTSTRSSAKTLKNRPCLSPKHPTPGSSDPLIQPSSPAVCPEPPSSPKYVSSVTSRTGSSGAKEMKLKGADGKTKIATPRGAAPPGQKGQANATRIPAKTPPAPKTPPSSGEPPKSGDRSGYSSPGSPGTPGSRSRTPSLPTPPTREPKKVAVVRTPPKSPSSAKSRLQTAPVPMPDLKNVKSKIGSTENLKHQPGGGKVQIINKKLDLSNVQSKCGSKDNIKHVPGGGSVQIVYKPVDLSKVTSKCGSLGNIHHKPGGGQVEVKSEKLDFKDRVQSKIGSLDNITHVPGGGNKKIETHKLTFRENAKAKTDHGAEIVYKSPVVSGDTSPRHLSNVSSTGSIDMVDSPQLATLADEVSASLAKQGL

Question: With `Oc1ccc(C=Nc2cccc3ncccc23)c(O)c1` as the compound, how does the Potency read?
Answer: Its Potency is inconclusive: 31.6 µM [inhibitor, partial curve].

Question: With `Cc1cc(C(=O)CSc2n[nH]c(N)n2)c(C)n1-c1cc(F)ccc1F` as the compound, how does the Potency read?
Answer: Its Potency is “inactive”.

Question: Which Potency does the source give for `CCOC(=O)c1ccc(CSc2n[nH]c(C)n2)o1` here?
Answer: Its Potency is “inactive”.

Question: How did the Potency turn out when `COc1ccc(NC(=O)N(CCC(C)C)C(C)c2ccccn2)c(OC)c1` (configuration not stated) was run?
Answer: The Potency was inconclusive: 22.4 µM [inhibitor, partial curve, poor fit].

Question: Which activity, negative = inhibition does the source give for `C[C@H]1Cc2c(COc3ccccc3)nc3c(c2CO1)CN(C(=O)C1CCCCC1)CC3` here?
Answer: The activity, negative = inhibition was inactive: -9.39% [at 11.5 µM].

Question: With `CCOC(=O)c1ccccc1NS(=O)(=O)c1ccc(N2CCCCS2(=O)=O)cc1` as the compound, how does the Potency read?
Answer: Its Potency is “inactive”.

Question: For `Cc1cc(C)c(NC(=O)NC2CCCCC2)c(C)c1`, which Potency is on record?
Answer: Its Potency is “inactive”.

Question: With `CC(C)S(=O)(=O)c1oc(-c2ccc(F)cc2)nc1S(=O)(=O)c1ccccc1` as the compound, how does the Potency read?
Answer: The Potency was inconclusive: 3.55 µM [inhibitor, single point].

Question: With `CN1CCN(c2oc(/C=C/c3ccc(F)cc3)nc2C#N)CC1` as the compound, how does the Potency read?
Answer: Its Potency is “inactive”.

Question: `Cc1cc(C)nc(-n2nc(C)cc2NC(=O)c2cccc(S(=O)(=O)N3CCCCC3)c2)n1` was tested. Which Potency did it give?
Answer: Its Potency is “inactive”.

Question: For `O=C(O)CN1C(=O)c2cccc3cccc(c23)C1=O`, which Potency is on record?
Answer: The Potency was inconclusive: 0.0251 µM [inhibitor, full curve, poor fit].

Question: Which Potency does the source give for `Clc1cccc(CSc2nncn3c2cc2sccc23)c1` here?
Answer: Its Potency is inconclusive: 22.4 µM [inhibitor, partial curve].

Question: How did the Potency turn out when `COc1ccc(OC)c(C(=O)c2c(N)c(-c3nc(-c4ccc(C)c(C)c4)cs3)c3ccccn23)c1` was run?
Answer: The Potency was inconclusive: 4.47 µM [inhibitor, partial curve].

Question: With `CN(C)c1ccc(N=Cc2nc(-c3ccccc3)oc2OC(=O)c2ccccc2)cc1` as the compound, how does the Potency read?
Answer: Its Potency is inconclusive: 7.94 µM [inhibitor, partial curve].

Question: With `Cc1cc(C(=O)NCCC2=CCCCC2)ccc1[N+](=O)[O-]` as the compound, how does the Potency read?
Answer: The Potency was inconclusive: 22.4 µM [inhibitor, partial curve].

Question: `CCc1ccccc1NC(=O)Cn1ccn(-c2cc(C)cc(C)c2)c(=O)c1=O` was tested. Which Potency did it give?
Answer: Its Potency is inconclusive: 5.62 µM [inhibitor, partial curve].

Question: With `CCOc1cccc(C2Nc3ccccc3-c3cc(C)nn32)c1O` (configuration not stated) as the compound, how does the Potency read?
Answer: The Potency was “inactive”.

Question: How did the Potency turn out when `COC(=O)C1CSc2[nH]c(=O)sc2C1c1ccc(O)c(OC)c1` (configuration not stated) was run?
Answer: The Potency was “inactive”.

Question: For `COc1ccc(C(=O)COC(=O)C(CCCCN2C(=O)C3C4C=CC(C4)C3C2=O)N2C(=O)C3C4C=CC(C4)C3C2=O)cc1` (configuration not stated), which Potency is on record?
Answer: The Potency was “inactive”.

Question: `COc1ccc(CCNC(=O)Cn2c(=O)n(-c3ccc(C)c(C)c3)c(=O)c3c(C)c(C)sc32)cc1OC` was tested. Which Potency did it give?
Answer: The Potency was “inactive”.

Question: How did the Potency turn out when `CCC1CSC(Nc2ccc(C(=O)/C=C/c3ccc(OC)c(OC)c3)cc2)=N1` (configuration not stated) was run?
Answer: Its Potency is inconclusive: 15.8 µM [inhibitor, partial curve].

Question: For `CCOc1ccc2nc(SCCNS(=O)(=O)c3ccccc3)sc2c1`, which Potency is on record?
Answer: Its Potency is inconclusive: 0.316 µM [inhibitor, full curve, poor fit].

Question: With `COc1ccc(C(=O)Nc2cc(C)c3c(=O)oc4ccccc4c3n2)cc1` as the compound, how does the Potency read?
Answer: The Potency was inconclusive: 17.8 µM [inhibitor, partial curve].

Question: How did the Potency turn out when `O=C(NNC(=S)Nc1cccc(C(F)(F)F)c1)c1ccccc1Cl` was run?
Answer: The Potency was inconclusive: 35.5 µM [inhibitor, single point].

Question: How did the Potency turn out when `O=C1/C(=C/c2ccccc2)Nc2ccccc21` was run?
Answer: Its Potency is active: 12.6 µM.

Question: How did the Potency turn out when `CCN(CC)CCCNC(=O)Cn1nc(C)n2c(cc3sccc32)c1=O` was run?
Answer: Its Potency is “inactive”.

Question: For `CCOc1cccc(=O)c2c(C)n(C)c(C)c12`, which Potency is on record?
Answer: The Potency was active: 15.8 µM.

Question: How did the Potency turn out when `Clc1ccc(CNc2ccccc2NCc2ccc(Cl)nc2)cn1` was run?
Answer: Its Potency is inconclusive: 14.1 µM [inhibitor, partial curve].

Question: With `CC(C)(C)c1ccc(S(=O)(=O)N(CCCN2CCOCC2)Cc2cccs2)cc1` as the compound, how does the Potency read?
Answer: Its Potency is “inactive”.

Question: With `O=C1N=c2ccccc2=C1c1sc(NS(=O)(=O)c2ccccc2)nc1O` as the compound, how does the Potency read?
Answer: Its Potency is active: 7.08 µM.

Question: Which Potency does the source give for `C=CCn1c(-c2ccc(Cl)cc2)cnc1SC(C)C(N)=O` (configuration not stated) here?
Answer: The Potency was “inactive”.

Question: How did the Potency turn out when `O=C(CSc1nc2ccccc2o1)Nc1nc2ccc(Br)cc2s1` was run?
Answer: Its Potency is inconclusive: 1.41 µM [inhibitor, full curve].

Question: With `CCC(=O)N1c2ccccc2CC1C(=O)NCc1cccc(C)c1` (configuration not stated) as the compound, how does the Potency read?
Answer: The Potency was “inactive”.

Question: With `CCCCCCCCCC(=O)O[C@H](CC(=O)O)C[N+](C)(C)C` as the compound, how does the Potency read?
Answer: Its Potency is “inactive”.

Question: Which Potency does the source give for `CCc1c(C)sc(NC(=O)c2cccs2)c1C#N` here?
Answer: Its Potency is inconclusive: 15.8 µM [inhibitor, partial curve].

Question: With `COc1cc(NC(=O)C2COc3ccccc3O2)c(OC)cc1Cl` (configuration not stated) as the compound, how does the Potency read?
Answer: The Potency was inconclusive: 15.8 µM [inhibitor, partial curve].

Question: How did the Potency turn out when `Clc1ccc(OCCOCCN2CCc3ccccc3C2)c(Cl)c1` was run?
Answer: Its Potency is inconclusive: 17.8 µM [inhibitor, partial curve].

Question: `COc1cc(C(=O)CC2(O)C(=O)N(Cc3ccccc3Cl)c3ccccc32)cc(OC)c1OC` (configuration not stated) was tested. Which Potency did it give?
Answer: Its Potency is inconclusive: 39.8 µM [inhibitor, single point].

Question: For `Cc1ccc2sc(N(Cc3cccnc3)C(=O)CCOc3ccccc3)nc2c1C`, which Potency is on record?
Answer: Its Potency is “inactive”.

Question: Which Potency does the source give for `Cc1c(C(=O)N(Cc2ccc(N(C)C)cc2)C2CCS(=O)(=O)C2)oc2ccccc12` (configuration not stated) here?
Answer: Its Potency is inconclusive: 44.7 µM [inhibitor, single point].

Question: With `O=C(CCCn1c(=S)[nH]c2ccsc2c1=O)Nc1ccc2c(c1)OCO2` as the compound, how does the Potency read?
Answer: The Potency was inconclusive: 20 µM [inhibitor, single point].

Question: For `COc1ccc(C2C3=C(CC(C)(C)CC3=O)Nc3c2c(=O)[nH]c(=O)n3Cc2ccccc2)cc1OC` (configuration not stated), which Potency is on record?
Answer: The Potency was “inactive”.

Question: `COc1cc([N+](=O)[O-])cc(/C=N/NC(=O)c2ccc(C)nc2)c1O` was tested. Which Potency did it give?
Answer: The Potency was active: 11.2 µM.

Question: With `Cc1ccc(OCC(=O)Nc2ccc(OCc3cc(=O)n4cccc(C)c4n3)cc2)cc1C` as the compound, how does the Potency read?
Answer: Its Potency is inconclusive: 5.62 µM [inhibitor, full curve].

Question: How did the Potency turn out when `Cc1nn(C(C)C(=O)NC2CCCCC2)c(=O)c2c1sc1ccccc12` (configuration not stated) was run?
Answer: The Potency was inconclusive: 31.6 µM [activator, single point].

Question: How did the Potency turn out when `CCn1c(-c2csc(-c3ccccc3)n2)n[nH]c1=S` was run?
Answer: The Potency was inconclusive: 3.16 µM [inhibitor, full curve, poor fit].

Question: How did the Potency turn out when `Cc1ccc(-c2nnc(Nc3ccc(Br)cc3)c3ccccc23)cc1S(=O)(=O)N1CCN(C)CC1` was run?
Answer: The Potency was “inactive”.

Reference: PubChem BioAssay AID1460 (National Center for Advancing Translational Sciences (NCATS), 2008)
